The list shows a part of the results. Where only a bound is given, the exact number is not on record here.

The chains are these.
B1: PhoQ; a variant is named by its letters at X, in order, P23837 (parent)
chain: MKKLLRLFFPLSLRVRFLLATAAVVLVLSLAYGMVALIGYSVSFDKTTFRLLRGESNLFYTLAKWENNKLHVELPENIDKQSPTMTLIYDENGQLLWAQRDVPWLMKMIQPDWLKSNGFHEIEADVNDTSLLLSGDHSIQQQLQEVREDDDDAEMTHSVAVNVYPATSRMPKLTIVVVDTIPVELKSSYMVWSWFIYVLSANLLLVIPLLWVAAWWSLRPIEALAKEVRELEEHNRELLNPATTRELTSLVRNLNRLLKSERERYDKYRTTLTDLTHSLKTPLXXLQXXLRSLRSEKMSVSDAEPVMLEQISRISQQIGYYLHRASMRGGTLLSRELHPVAPLLDNLTSALNKVYQRKGVNISLDISPEISFVGEQNDFVEVMGNVLDNACKYCLEFVEISARQTDEHLYIVVEDDGPGIPLSKREVIFDRGQRVDTLRPGQGVGLAVAREITEQYEGKIVAGESMLGGARMEVIFGRQHSAPKDE

This assay covers variants of B1. The experiment in a line: enrichment ratio after two sorts for PhoP signalling (ratio (wild type AVST 3.29)); higher = more functional. As to conditions: with PhoP (E. coli).
For MRHM, the enrichment ratio was ≤ 0.25.

For the variant PAPF, the enrichment ratio is ≤ 0.25.

As to PVCL, the enrichment ratio was ≤ 0.25.

Consider DEMA, for which the enrichment ratio was ≤ 0.25.

On to WHSR, for which the enrichment ratio was ≤ 0.25.

Regarding YVPM, the enrichment ratio was ≤ 0.25.

Take VLHE: the enrichment ratio was ≤ 0.25.

For VWWR, the enrichment ratio is ≤ 0.25.

In the case of GESN, the enrichment ratio was ≤ 0.25.

Turning to LFYI, the enrichment ratio was ≤ 0.25.

PKWH: the enrichment ratio was ≤ 0.25.

Regarding IPYW, the enrichment ratio was ≤ 0.25.

TRKG: the enrichment ratio is ≤ 0.25.

Consider ISGC, for which the enrichment ratio was ≤ 0.25.

As to KDAP, the enrichment ratio is ≤ 0.25.

For the variant YINL, the enrichment ratio was ≤ 0.25.

As for VQAV, the enrichment ratio is ≤ 0.25.

In the case of PLKN, the enrichment ratio is ≤ 0.25.

Take IIAY: the enrichment ratio is ≤ 0.25.

DPLS: the enrichment ratio is ≤ 0.25.

Regarding PEQM, the enrichment ratio was ≤ 0.25.

MNGV: the enrichment ratio was 5.07.

Turning to YSNL, the enrichment ratio was ≤ 0.25.

Take NKPP: the enrichment ratio was ≤ 0.25.

For VGED, the enrichment ratio is ≤ 0.25.

Consider HVPS, for which the enrichment ratio is ≤ 0.25.

Regarding EGQE, the enrichment ratio is ≤ 0.25.

Turning to DIPP, the enrichment ratio was ≤ 0.25.

Regarding SQWP, the enrichment ratio was ≤ 0.25.

As for GVCE, the enrichment ratio was ≤ 0.25.

With NGEP, the enrichment ratio was ≤ 0.25.

Take GVFP: the enrichment ratio was ≤ 0.25.

In the case of IHGI, the enrichment ratio is ≤ 0.25.

With AMYQ, the enrichment ratio was ≤ 0.25.

On to SAVQ, for which the enrichment ratio came to 9.3.

For the variant SQYA, the enrichment ratio is ≤ 0.25.

Regarding PCGK, the enrichment ratio is ≤ 0.25.

As for ISHI, the enrichment ratio was ≤ 0.25.

Turning to IKWM, the enrichment ratio is ≤ 0.25.

In the case of VELE, the enrichment ratio is ≤ 0.25.

Consider VAAE, for which the enrichment ratio was ≤ 0.25.

For the variant PGVN, the enrichment ratio was ≤ 0.25.

Take CYYN: the enrichment ratio was ≤ 0.25.

Consider YDLP, for which the enrichment ratio is ≤ 0.25.

In the case of VSDK, the enrichment ratio is ≤ 0.25.

HGFF: the enrichment ratio is ≤ 0.25.

TIQT: the enrichment ratio stood at 12.7.

Turning to PQTI, the enrichment ratio was ≤ 0.25.

As to SGTR, the enrichment ratio is ≤ 0.25.

Regarding SLES, the enrichment ratio is ≤ 0.25.

For TTFA, the enrichment ratio was ≤ 0.25.

For the variant IHAI, the enrichment ratio is ≤ 0.25.

Consider FMIP, for which the enrichment ratio was 1.25.

Consider ILYR, for which the enrichment ratio is ≤ 0.25.

As to YAHQ, the enrichment ratio is ≤ 0.25.

Take NTDF: the enrichment ratio is ≤ 0.25.

As for WTGC, the enrichment ratio is ≤ 0.25.

Regarding RCKL, the enrichment ratio is ≤ 0.25.

Consider IEEP, for which the enrichment ratio was ≤ 0.25.

For DYMF, the enrichment ratio is ≤ 0.25.

Regarding PLLP, the enrichment ratio was ≤ 0.25.

On to TADT, for which the enrichment ratio is ≤ 0.25.

MNRW: the enrichment ratio is ≤ 0.25.

Consider FPGW, for which the enrichment ratio is ≤ 0.25.

With RTSP, the enrichment ratio was ≤ 0.25.

NLWA: the enrichment ratio was ≤ 0.25.

On to EGGI, for which the enrichment ratio is ≤ 0.25.

For the variant IESV, the enrichment ratio was ≤ 0.25.

As for VFWE, the enrichment ratio was ≤ 0.25.

Take FAGG: the enrichment ratio is ≤ 0.25.

Regarding IKCG, the enrichment ratio is ≤ 0.25.

As for NFMV, the enrichment ratio is ≤ 0.25.

Consider QIDH, for which the enrichment ratio was ≤ 0.25.

In the case of LVAT, the enrichment ratio was ≤ 0.25.

As to TRGH, the enrichment ratio was ≤ 0.25.

For the variant SMTF, the enrichment ratio turned out to be 10.2.

On to PINS, for which the enrichment ratio was ≤ 0.25.

For the variant QLWT, the enrichment ratio is ≤ 0.25.

RQSW: the enrichment ratio is ≤ 0.25.

For MLQA, the enrichment ratio is ≤ 0.25.

With ATGH, the enrichment ratio came to 5.03.

For the variant HKQR, the enrichment ratio was ≤ 0.25.

PWSS: the enrichment ratio was ≤ 0.25.

As to STKK, the enrichment ratio is ≤ 0.25.

Consider RAAT, for which the enrichment ratio was ≤ 0.25.

For ENHA, the enrichment ratio was ≤ 0.25.

Consider WEFK, for which the enrichment ratio is ≤ 0.25.

As for QPWD, the enrichment ratio is ≤ 0.25.

With VSYH, the enrichment ratio is ≤ 0.25.

Regarding HMTS, the enrichment ratio was ≤ 0.25.

Take YWAQ: the enrichment ratio is ≤ 0.25.

For the variant HLLT, the enrichment ratio was ≤ 0.25.

Turning to GTKW, the enrichment ratio was ≤ 0.25.

As to YYCM, the enrichment ratio is ≤ 0.25.

FERY: the enrichment ratio was ≤ 0.25.

With CHPI, the enrichment ratio was ≤ 0.25.

On to HSAA, for which the enrichment ratio was ≤ 0.25.

As to ILNG, the enrichment ratio is ≤ 0.25.

With TMMR, the enrichment ratio came out at 5.23.

Regarding RWFK, the enrichment ratio was ≤ 0.25.

Regarding PSLE, the enrichment ratio was ≤ 0.25.

Regarding QKKD, the enrichment ratio is ≤ 0.25.

As for NHYG, the enrichment ratio was ≤ 0.25.

As for QNKV, the enrichment ratio is ≤ 0.25.

Turning to FIVR, the enrichment ratio is ≤ 0.25.

Take KHYV: the enrichment ratio was ≤ 0.25.

In the case of LKTW, the enrichment ratio was ≤ 0.25.

DPGW: the enrichment ratio is ≤ 0.25.

Regarding FLPW, the enrichment ratio is ≤ 0.25.

For DVFD, the enrichment ratio is ≤ 0.25.

For TVVQ, the enrichment ratio was ≤ 0.25.

On to LYPF, for which the enrichment ratio was ≤ 0.25.

Take DKLT: the enrichment ratio was ≤ 0.25.

For the variant WMNR, the enrichment ratio is ≤ 0.25.

For the variant LVYK, the enrichment ratio was ≤ 0.25.

Consider FWLA, for which the enrichment ratio was ≤ 0.25.

With SSMH, the enrichment ratio worked out at 8.25.

On to MFRP, for which the enrichment ratio was ≤ 0.25.

With CMLL, the enrichment ratio was ≤ 0.25.

Consider GQTI, for which the enrichment ratio is ≤ 0.25.

On to NGPS, for which the enrichment ratio amounted to 0.465.

As for IDKH, the enrichment ratio is ≤ 0.25.

SVWI: the enrichment ratio is ≤ 0.25.

For the variant KIPV, the enrichment ratio was ≤ 0.25.

Consider LAFY, for which the enrichment ratio was 1.35.

On to MHDL, for which the enrichment ratio was ≤ 0.25.

On to MMIS, for which the enrichment ratio is ≤ 0.25.

HCHV: the enrichment ratio was ≤ 0.25.

Take VCEY: the enrichment ratio is ≤ 0.25.

For the variant VLTM, the enrichment ratio is ≤ 0.25.

Take MEAY: the enrichment ratio stood at 13.

Take DSVK: the enrichment ratio is ≤ 0.25.

YPYL: the enrichment ratio is ≤ 0.25.

As for WSQM, the enrichment ratio is ≤ 0.25.

For RKGL, the enrichment ratio is ≤ 0.25.

Consider DNQH, for which the enrichment ratio is ≤ 0.25.

As to MRVN, the enrichment ratio was ≤ 0.25.

MNYV: the enrichment ratio was found to be 3.49.

Turning to PLKK, the enrichment ratio was ≤ 0.25.

On to FKPL, for which the enrichment ratio is ≤ 0.25.

As for GEFE, the enrichment ratio is ≤ 0.25.

AETD: the enrichment ratio is ≤ 0.25.

Regarding DYLG, the enrichment ratio was ≤ 0.25.

For the variant SGYM, the enrichment ratio is 0.404.

On to HLPQ, for which the enrichment ratio was ≤ 0.25.

On to IDEC, for which the enrichment ratio is ≤ 0.25.

YAFV: the enrichment ratio is ≤ 0.25.

For the variant IETD, the enrichment ratio was ≤ 0.25.

KLHH: the enrichment ratio was ≤ 0.25.

Consider PQNC, for which the enrichment ratio is ≤ 0.25.

Take EHAN: the enrichment ratio was found to be 2.57.

For IPVI, the enrichment ratio is ≤ 0.25.

On to QVWE, for which the enrichment ratio stood at 6.13.

Take EGWL: the enrichment ratio was ≤ 0.25.

Turning to APPF, the enrichment ratio was ≤ 0.25.

For the variant VSER, the enrichment ratio is ≤ 0.25.

Regarding ENGH, the enrichment ratio is ≤ 0.25.

In the case of AYRT, the enrichment ratio is ≤ 0.25.

For the variant FRKF, the enrichment ratio was ≤ 0.25.

Take QINV: the enrichment ratio is ≤ 0.25.

Consider DTHH, for which the enrichment ratio was ≤ 0.25.

As for LNNE, the enrichment ratio is ≤ 0.25.

KEDW: the enrichment ratio was ≤ 0.25.

Consider RIQD, for which the enrichment ratio is ≤ 0.25.

Take PYYR: the enrichment ratio was ≤ 0.25.

Take THEW: the enrichment ratio was ≤ 0.25.

Regarding KRPA, the enrichment ratio is ≤ 0.25.

On to HRPH, for which the enrichment ratio is ≤ 0.25.

DSVQ: the enrichment ratio was ≤ 0.25.

In the case of HILL, the enrichment ratio was ≤ 0.25.

Consider FANG, for which the enrichment ratio was ≤ 0.25.

Regarding GNSI, the enrichment ratio was 4.37.

Take YLMT: the enrichment ratio was ≤ 0.25.

Take QWPL: the enrichment ratio was ≤ 0.25.

Regarding HGVV, the enrichment ratio is ≤ 0.25.

Regarding NCMM, the enrichment ratio was ≤ 0.25.

In the case of KAFR, the enrichment ratio is ≤ 0.25.

As for YGKD, the enrichment ratio was ≤ 0.25.

As for VAWN, the enrichment ratio is ≤ 0.25.

ARGL: the enrichment ratio is ≤ 0.25.

Turning to VTHF, the enrichment ratio was ≤ 0.25.

Regarding ILNA, the enrichment ratio was ≤ 0.25.

With AFSR, the enrichment ratio is ≤ 0.25.

For the variant ERRK, the enrichment ratio is ≤ 0.25.

Regarding GCFF, the enrichment ratio is ≤ 0.25.

IRVF: the enrichment ratio is ≤ 0.25.

Regarding RFNF, the enrichment ratio was ≤ 0.25.

In the case of MSDH, the enrichment ratio is ≤ 0.25.

As to HEPT, the enrichment ratio is ≤ 0.25.

Take TLIG: the enrichment ratio was ≤ 0.25.

For the variant RKTC, the enrichment ratio is ≤ 0.25.

DPAQ: the enrichment ratio is ≤ 0.25.

Consider FTRI, for which the enrichment ratio is ≤ 0.25.

Regarding GVYH, the enrichment ratio is ≤ 0.25.

As to DPEW, the enrichment ratio was ≤ 0.25.
